Assay results from PubChem BioAssay AID1346428 (National Center for Advancing Translational Sciences (NCATS), 2018).
Several values for one entry are separate records, joined by “and”; a condition that tells them apart may be missing. Equal entries are not always repeated. About 1,200 (2.5%) of roughly 48,000 compounds were called active. Roughly 2% stayed inconclusive and do not appear here.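 How the source made its calls: active means activation of at least 60% and not above a set upper limit (about 1 call in 100 departs from these limits); inconclusive means activation of 40% to 60%, or above that upper limit; inactive means activation under 40%.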 The list shows a part of the results.

molecular target: Probable G-protein coupled receptor 32 (Homo sapiens) (UniProt O75388); assay: qHTS for Agonists of Human Resolvin D1 Receptor DRV1; conditions: CHO-K1 GPR32 beta-arrestin PathHunter luminescence, 90 min; at 76.9 µM; active compounds read high; zero percent set by DMSO-only wells; further: 0% is about no effect
Method in brief: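 PathHunter beta-arrestin recruitment in CHO-K1 cells stably expressing ProLink-tagged GPR32. Cells were exposed to compound for 90 min at 37 C, then chemiluminescence was read after 1 h detection at ambient temperature; DMSO served as basal control.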

UniProt O75388, sequence (O75388 whole entry, looked up): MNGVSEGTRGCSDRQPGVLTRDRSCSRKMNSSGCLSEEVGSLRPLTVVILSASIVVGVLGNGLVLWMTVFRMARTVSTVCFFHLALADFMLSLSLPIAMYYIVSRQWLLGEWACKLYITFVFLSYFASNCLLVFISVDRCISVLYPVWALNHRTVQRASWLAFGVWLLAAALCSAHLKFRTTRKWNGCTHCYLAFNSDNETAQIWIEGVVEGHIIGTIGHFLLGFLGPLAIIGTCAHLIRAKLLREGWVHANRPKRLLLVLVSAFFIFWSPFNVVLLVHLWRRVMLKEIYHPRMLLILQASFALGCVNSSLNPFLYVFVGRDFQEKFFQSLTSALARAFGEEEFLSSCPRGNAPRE

| SMILES | activation |
| --- | --- |
| CCOC(=O)c1cc(-c2ccccc2)n(CC(=O)Nc2cc(Cl)c(OC)cc2OC)c1C | inactive: -10.8% |
| Cc1ccc(Nc2c(-c3ccc(N4CCOCC4)cc3)nc3ncccn23)c(C)c1 | inactive: -35.6% |
| COCCNC(=O)CCSc1nc(-c2ccc(OC)cc2)cc(C(F)(F)F)n1 | inactive: -2.18% |
| Cc1nn(C(C)C(=O)Nc2cccc(F)c2)c(=O)c2c1sc1ccccc12 (stereo not drawn) | inactive: -24% |
| CCCCCOc1ccccc1Cn1c(=O)oc2ccc(C)cc21 | inactive: -10.8% |
| O=C(NC1CCCC1)c1ccc(CSc2nc3cccnc3n2Cc2ccccc2F)cc1 | inactive: 4.42% |
| Cc1ccccc1C(OCCN(C)C)c1ccccc1 (stereo not drawn) | inactive: 30.1% and inactive: -6.44% |
| CC1CCCN(Cc2c(O)ccc3c(=O)c(-c4ccccc4Cl)c(C(F)(F)F)oc23)C1 (stereo not drawn) | inactive: -24.7% |
| O=C(Cn1c(-c2cccs2)cc2ccccc21)NCCCN1CCN(c2ccc(F)cc2)CC1 | inactive: -20.2% |
| Cc1cc(C)c(NS(=O)(=O)c2ccc3c(c2)NC(=O)CCS3)c(C)c1 | active: 83.2% |
| Cc1c(I)c(=O)n(-c2ccccc2)n1C | inactive: 3.7% |
| O=C(COc1ccc(Cl)cc1)N(Cc1ccco1)c1ccccn1 | inactive: -4.71% |
| CCOc1ccc(OCC)c(NS(=O)(=O)c2ccc3c(c2)CCCN3C(C)=O)c1 | inactive: -13.5% |
| CCc1nnc(NC(=O)c2nc(SCc3ccc(F)cc3)ncc2Cl)s1 | inactive: 48.7% |
| O=C(O)/C=C\C(=O)O | inactive: 10.4% |
| O=C(OCC1CCCO1)c1ccc2c(c1)N(Cc1c(F)cccc1Cl)C(=O)c1ccccc1S2(=O)=O (stereo not drawn) | inactive: -2.94% |
| Nc1ncnc2c1ncn2[C@@H]1O[C@H](COP(=O)(O)CP(=O)(O)OP(=O)(O)O)[C@@H](O)[C@H]1O | inactive: 1.13% |
| CCCCn1c(C2CC(=O)N(c3ccc(OCC)cc3)C2)nc2ccccc21 (stereo not drawn) | inactive: -8.5% |
| COCC(C)NC(=O)C1=CC(c2ccc3c(c2)OCO3)=NS(=O)(=O)N1C (stereo not drawn) | inactive: -5.4% |
| Cc1cc(C)c(NC(=O)c2ccc3nc(C(C)C)oc3c2)c(C)c1 | inactive: -8.47% |
| CCOCCn1c(=NC(=O)c2ccc3c(c2)OCCO3)sc2cc(OCC)ccc21 | inactive: -7.51% |

| SMILES | activation |
| --- | --- |
| NCCNS(=O)(=O)c1cccc2c(Cl)cccc12 | inactive: -4.64% |
| CCN(CC)S(=O)(=O)c1ccc2c(c1)c(=O)c(C(=O)N1CCN(c3cc(C)ccc3C)CC1)cn2C | inactive: 3.67% |
| O=C(Cn1cc(SCc2ccc(F)cc2)c2ccccc21)N1CCCC1 | inactive: -21.8% |
| Cc1cccc(S(=O)(=O)c2cn(Cc3ccc(F)cc3)c3cc(N4CCOCC4)c(F)cc3c2=O)c1 | inactive: -6.39% |
| Cc1ccc(Cl)cc1N1CCN(C(=O)c2cnc3c(-c4ccc(F)cc4)c(C)nn3c2C)CC1 | inactive: -9.36% |
| O=C(Nc1ccccc1C(F)(F)F)C1CCN(c2nnc(-n3cccc3)s2)CC1 | inactive: -6.9% |
| COc1ccc(S(=O)(=O)N2CCC(c3nnnn3-c3ccccc3)CC2)cc1OC | inactive: 1.32% |
| CCC(C(=O)NC1CCCCC1)n1nc(C)c2sc3ccccc3c2c1=O (stereo not drawn) | inactive: -3.77% |
| CSc1ccc(-c2nc3cc(C)ccn3c2Nc2ccc(C)cc2)cc1 | inactive: 0.977% |
| Cc1cccc(-c2nc(S(=O)(=O)c3ccccc3)c(N3CCN(c4ccccc4)CC3)o2)c1 | inactive: -12.7% |
| O=C(CSc1nc2c(c(=O)[nH]1)CCC2)Nc1cc(C(F)(F)F)ccc1Cl | active: 82.6% |
| CCc1ccc(NC(=O)C(=O)NCCc2sc(-c3ccc(C)cc3)nc2C)cc1 | inactive: -5.8% |
| COc1ccc(NCc2cccn2-c2nnc(N3CCC(C)CC3)s2)c(OC)c1 | inactive: -19.8% |
| CC(C)C[C@H]1C(=O)N2CCC[C@H]2[C@]2(O)O[C@](NC(=O)[C@@H]3C=C4c5cccc6[nH]c(Br)c(c56)C[C@H]4N(C)C3)(C(C)C)C(=O)N12 | inactive: -10.3% |
| Cn1ccc2c(OCC(=O)NCc3ccc(F)cc3)cccc2c1=O | active: 68.1% |
| CCOC(=O)c1cc(S(=O)(=O)Nc2cc(C)c(Cl)cc2OC)[nH]n1 | inactive: -4.91% |
| Cc1ccc(C(=O)c2cn(Cc3ccccc3)c3cc4c(cc3c2=O)OCCO4)cc1 | inactive: 16.7% |
| CCc1cccc(NC(=O)CSc2nccn2C)c1 | inactive: 7.11% |
| COc1c(Cl)cc(Cl)cc1C(=O)Nc1cccc2cccnc12 | inactive: 11.4% |
| CCOC(=O)c1ccc(N2C(=O)c3n[nH]c(C)c3C2c2ccccc2OC)cc1 (stereo not drawn) | inactive: 10.6% |
| N#Cc1ccc(C(=O)NCc2ccc3c(c2)CCN3C(=O)c2ccc(F)cc2)cc1 | inactive: -21.2% |

| SMILES | activation |
| --- | --- |
| CCc1ccc2oc(C(=O)Nc3c(C)n(C)n(-c4ccccc4)c3=O)cc(=O)c2c1 | inactive: -0.806% |
| Cc1ccccc1Cn1c2ccccc2c2cnn(CC(=O)NC(C)CCc3ccccc3)c(=O)c21 (stereo not drawn) | inactive: 5.13% |
| COC(=O)c1ccc(NC(=O)CN(CCc2ccccc2)S(=O)(=O)c2ccc(OC)cc2)cc1 | inactive: -26.8% |
| Cc1cccc(CCNc2ncnc3onc(-c4ccc(Cl)cc4)c23)c1 | inactive: 11.2% |
| Cc1cccc(Cn2nc(C)n3c(cc4cc(C)ccc43)c2=O)c1 | inactive: 4.24% |
| Cc1ccccc1OCC(=O)Nc1sc2c(c1C(=O)OC(C)C)CCCC2 | inactive: -8.18% |
| CCOc1ccc(C(=O)NCCc2sc(-c3ccc(OC)c(OC)c3)nc2C)cc1 | inactive: -6.95% |
| Cc1ccc(C)c(N2CCN(c3ccc4cc(S(=O)(=O)N5CCC(C)CC5)ccc4n3)CC2)c1 | inactive: -13.3% |
| Cc1ccc(C)c(N2CCN(C(=O)c3cc(C)nc4c3c(C)nn4-c3cccc(F)c3)CC2)c1 | inactive: -20.7% |
| CCOc1ccc(-n2c(SCC(=O)N3CCC(C)CC3)nc3c([nH]c4ccccc43)c2=O)cc1 | inactive: -1.21% |
| CCn1c(C(=O)NCc2ccc(OC(C)C)cc2)cc2oc3ccccc3c21 | inactive: -26.5% |
| Cc1oc2ccc(O)c(CN3CCN(C)CC3)c2c1C(=O)Nc1cccc(Cl)c1C | inactive: -1.76% |
| CCCCCCCCCCCCOCCO | inactive: 13.5% |
| Cc1ccc2c(c1)c(=O)c1ccccc1n2CCCC(=O)Nc1cc(Cl)ccc1C | inactive: -0.242% |
| Cc1oc(-c2cccc(Cl)c2)nc1CS(=O)(=O)CC(=O)NCc1ccccc1Cl | inactive: 19.1% |
| CCCOc1ccc(C(=O)Nc2cc3c(cc2N2CCOCC2)n(C)c(=O)n3C)cc1 | inactive: -22.6% |
| Cc1cccc(N2C(=O)C(CC(=O)Nc3ccc(Cl)cc3)N(Cc3ccco3)C2=O)c1 (stereo not drawn) | inactive: -26.6% |
| Cc1cccc(-n2c(=O)c3c(c4cc(C)ccc4n3C)n(CC(=O)NCC3CCCO3)c2=O)c1 (stereo not drawn) | inactive: -8.6% |
| COc1ccc2c(CNCc3cccs3)c(C(=O)O)n(Cc3ccc(C)cc3)c2c1 | inactive: 12.3% |
| Cc1nn(CC(=O)O)c(=O)c2cc3cc(F)ccc3n12 | inactive: 2.24% |
| COc1ccccc1NC(=O)c1cc(S(=O)(=O)N2CCN(c3ccccc3Cl)CC2)ccc1F | inactive: 1.89% |

| SMILES | activation |
| --- | --- |
| O=C(Nc1cc(Cl)cc(Cl)c1)c1ccc2c(c1)N(Cc1cccc(Cl)c1)C(=O)c1ccccc1S2=O (stereo not drawn) | inactive: -5.13% |
| COC(=O)c1ccc(C2c3c(oc4ccccc4c3=O)C(=O)N2c2nc(C)c(C(=O)OC)s2)cc1 (stereo not drawn) | inactive: -4.31% |
| CCC(=O)C1=C(c2ccc(Cl)cc2)N(C(=O)CC)n2c(C)nnc2S1 | inactive: -66.5% |
| CCS(=O)(=O)c1ccc(O)c(Nc2cc(C)nc(SC)n2)c1 | inactive: 32.1% |
| O=C(CSc1oc(-c2ccco2)nc1S(=O)(=O)c1ccc(Br)cc1)c1ccccc1 | inactive: -24.8% |
| Cc1ccc(S(=O)(=O)C(CNC(=O)c2ccc(F)c(F)c2)c2ccco2)cc1 (stereo not drawn) | inactive: -4.54% |
| CCCCn1c(=O)c2oc3ccccc3c2n(Cc2cccc(F)c2)c1=O | inactive: -18.2% |
| Cc1cc(C)cc(NC(=O)c2ccc3c(c2)nnn3C2CCCC2)c1 | inactive: -33.9% |
| Cc1ccc(CNC(=O)CCN2C(=O)COc3ccc(C)cc32)cc1 | inactive: -9.94% |
| CCc1nnc2c(Nc3cccc(F)c3)nc3ccc(C(=O)c4ccccc4)cc3n12 | inactive: 6.84% |
| CCOC(=O)c1cccc(NC(=O)c2cc3c(=O)n(C)c4ccccc4c3n2C)c1 | inactive: -26.8% |
| CC(C)c1cnc2c(c1SCC(=O)Nc1ccc(OC(F)(F)F)cc1)c(=O)n(C)c(=O)n2C | inactive: -10.3% |
| O=C(c1cc(-c2cccc(Cl)c2)on1)N1CCN(c2ccccc2)CC1 | inactive: -4.1% |
| O=C(CCCN1C(=O)c2cccnc2Oc2ccc(Cl)cc21)NCc1ccccc1F | inactive: -17.8% |
| CC1CCN(S(=O)(=O)c2nnc(NC(=O)c3ccc(C(C)C)cc3)s2)CC1 | inactive: 28.7% |
| CCN(CC)CCOC(=O)c1ccc(NC(=O)c2nn(C)c3c2COc2ccccc2-3)cc1 | inactive: 7.83% |
| Cc1ccc(NC2=C(CC(=O)O)C(c3ccc(F)cc3)N(c3ccc(C)cc3)C2=O)cc1 (stereo not drawn) | inactive: -20.4% |
| COc1ccc(NC(=O)c2c(NCc3ccc(N(C)C)cc3)sc3c2CCC3)cc1 | inactive: 7.04% |
| COC(=O)C1=C(C)NC(C)=C(C(=O)OCCN(C)Cc2ccccc2)C1c1cccc([N+](=O)[O-])c1 (stereo not drawn) | inactive: -8.76% and inactive: -44.6% |
| CCc1ccc(N2CCn3c2nc2c3c(=O)n(C/C=C/c3ccccc3)c(=O)n2C)cc1 | inactive: -7.26% |
